Test results published in the supplement of paper PMC4604168 (melanoma cell lines).
This is one part of the list. Repeats are few or missing, and single values can be far off.

Key:
Experiment in all cases: cell count relative to DMSO control; melanoma cells; higher = more viable cells
Details in all cases: library dose: standard library concentration; 72 h
[1] = test system: G361
[2] = test system: IPC-298
[3] = test system: IST-MEL1
[4] = test system: LB2518-MEL
[5] = test system: LOXIMVI
[6] = test system: MEL-HO
[7] = test system: MZ2-MEL
[8] = test system: MeWo
[9] = test system: RPMI7951
[10] = test system: RVH-421
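Further: cells treated in 1,536-well plates, then fixed and DAPI-stained, with nuclei counted from automated high-throughput microscope images.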

Row | SMILES | cell count [1] | cell count [2] | cell count [3] | cell count [4] | cell count [5] | cell count [6] | cell count [7] | cell count [8] | cell count [9] | cell count [10]
1 | CN(C)S(=O)(=O)c1ccc2c(c1)/C(=C/c1cc3c([nH]1)CCCC3)C(=O)N2 + CCCCCCCCCCCC1=C(O)C(=O)C=C(O)C1=O [Embelin] (first compound 2 µM, partner dose 6 µM) | 56.4% | 52.8% | 61.4% | 95.9% | 112% | 79.5% | 71.1% | 97% | 60.4% | 72.8%
2 | CN(C)S(=O)(=O)c1ccc2c(c1)/C(=C/c1cc3c([nH]1)CCCC3)C(=O)N2 + Cc1cc([N+](=O)[O-])ccc1NS(=O)(=O)c1cc(Cl)ccc1Cl [FH535] (first compound 2 µM, partner dose 5 µM) | 42.7% | 48.5% | 54.7% | 68.2% | 87.7% | 51.8% | 73.7% | 76.5% | 65.3% | 70.2%
3 | Cc1nc(Nc2ncc(C(=O)Nc3c(C)cccc3Cl)s2)cc(N2CCN(CCO)CC2)n1 [dasatanib] + NCC(=O)Nc1ccc(-n2nc(C(F)(F)F)cc2-c2ccc3c(ccc4ccccc43)c2)cc1 [OSU03012] (first compound 0.02 µM, partner dose 5 µM) | 64.5% | 53.6% | 59.6% | 77.6% | 17.3% | 72.7% | 68.2% | 74.7% | 48.4% | 47.8%
4 | CO[C@@H]1[C@H](N(C)C(=O)c2ccccc2)C[C@H]2O[C@]1(C)n1c3ccccc3c3c4c(c5c6ccccc6n2c5c31)C(=O)NC4 [Midostaurin] + CCc1ccc(CCOc2ccc(CC3SC(=O)NC3=O)cc2)nc1 [pioglitazone] (first compound 0.4 µM, partner dose 10 µM) | 32.2% | 56.8% | 65.3% | 65.4% | 49.6% | 62.4% | 48.9% | 64.4% | 36.1% | 54.8%
5 | CO[C@@H]1[C@H](N(C)C(=O)c2ccccc2)C[C@H]2O[C@]1(C)n1c3ccccc3c3c4c(c5c6ccccc6n2c5c31)C(=O)NC4 [Midostaurin] + O=C(Nc1cccc(Cl)c1)Nc1ncc(CCNc2ncnc3ccsc23)s1 [SNS314] (first compound 0.4 µM, partner dose 0.004 µM) | 22.4% | 37.4% | 34.8% | 42% | 50.5% | 53.4% | 42.6% | 37.6% | 41.1% | 62.7%
6 | C[C@]1(c2nc3c(C(N)=O)cccc3[nH]2)CCCN1 [Veliparib] + Cn1cc(/C=C2\C(=O)Nc3cccnc32)c2ccccc21 [GW441756] (first compound 7 µM, partner dose 2 µM) | 81.3% | 87.9% | 88.2% | 118% | 86.6% | 91% | 86.6% | 109% | 84% | 84.8%
7 | C[C@]1(c2nc3c(C(N)=O)cccc3[nH]2)CCCN1 [Veliparib] + NC(=O)Nc1cc(-c2cccc(F)c2)sc1C(=O)N[C@H]1CCCNC1 [AZD7762] (first compound 7 µM, partner dose 0.1 µM) | 88.2% | 92.3% | 90% | 65.9% | 62% | 88.9% | 117% | 71.5% | 38.4% | 129%
8 | C=CCn1c(=O)c2cnc(Nc3ccc(N4CCN(C)CC4)cc3)nc2n1-c1cccc(C(C)(C)O)n1 + COc1ccc(COc2ccc(Cc3cnc(N)nc3N)cc2OC)cc1 [GW2580] (first compound 0.1 µM, partner dose 5 µM) | 74.2% | 74.7% | 108% | 71.7% | 101% | 86.6% | 102% | 80.5% | 70.6% | 109%
9 | C[C@]1(c2nc3c(C(N)=O)cccc3[nH]2)CCCN1 [Veliparib] + Cc1ccc(NC(=O)c2cccc(N(C)C)c2)cc1NC(=O)c1ccc(O)cc1 [ZM336372] (first compound 7 µM, partner dose 10 µM) | 78.3% | 90.6% | 75.1% | 83.1% | 103% | 78.8% | 99% | 94.8% | 92.2% | 91.6%
10 | OCCn1cc(-c2cnc3nnn(Cc4ccc5ncccc5c4)c3n2)cn1 + O=C(Nc1ccccc1)c1cc([N+](=O)[O-])ccc1Cl [GW9662] (first compound 5 µM, partner dose 10 µM) | 95.8% | 114% | 107% | 87.1% | 92.4% | 87.1% | 84.3% | 80.4% | 98.5% | 104%
11 | C=CCn1c(=O)c2cnc(Nc3ccc(N4CCN(C)CC4)cc3)nc2n1-c1cccc(C(C)(C)O)n1 + COc1ccc(-c2ccc3c(N4CCOCC4)nc(N4C[C@@H](C)O[C@@H](C)C4)nc3n2)cc1CO [KU0063794] (first compound 0.1 µM, partner dose 0.1 µM) | 67.7% | 60.8% | 89.7% | 59.2% | 87.2% | 74.6% | 69.8% | 84.7% | 51.3% | 63.6%
12 | C=CCn1c(=O)c2cnc(Nc3ccc(N4CCN(C)CC4)cc3)nc2n1-c1cccc(C(C)(C)O)n1 + Cn1cncc1[C@@](N)(c1ccc(Cl)cc1)c1ccc2c(c1)c(-c1cccc(Cl)c1)cc(=O)n2C [tipifarnib] (first compound 0.1 µM, partner dose 0.05 µM) | 64.8% | 73.3% | 88% | 44.5% | 54.3% | 87.2% | 97.2% | 72.8% | 55.1% | 81.6%
13 | CO[C@@H]1[C@H](N(C)C(=O)c2ccccc2)C[C@H]2O[C@]1(C)n1c3ccccc3c3c4c(c5c6ccccc6n2c5c31)C(=O)NC4 [Midostaurin] + CN(C)S(=O)(=O)c1ccc2c(c1)/C(=C/c1cc3c([nH]1)CCCC3)C(=O)N2 [SU6656] (first compound 0.4 µM, partner dose 2 µM) | 31.9% | 37.2% | 49.4% | 64.4% | 56.5% | 58.6% | 54.1% | 48.7% | 42.3% | 101%
14 | C[C@]1(c2nc3c(C(N)=O)cccc3[nH]2)CCCN1 [Veliparib] + Oc1nc(-c2ccc(C(F)(F)F)cc2)nc2c1CSCC2 [XAV939] (first compound 7 µM, partner dose 10 µM) | 85.3% | 101% | 100% | 79% | 89.8% | 84.7% | 62% | 90.6% | 73.8% | 78.5%
15 | C[C@]1(c2nc3c(C(N)=O)cccc3[nH]2)CCCN1 [Veliparib] + O=C(O)c1ccc(-c2c[nH]c3ncc(-c4ccccc4)cc23)cc1C1CCCC1 [GSK650394] (first compound 7 µM, partner dose 0.8 µM) | 73.9% | 98.5% | 71% | 82.5% | 81% | 76.2% | 90% | 89.1% | 71.7% | 86.5%
16 | CN(C)S(=O)(=O)c1ccc2c(c1)/C(=C/c1cc3c([nH]1)CCCC3)C(=O)N2 + Oc1cc(-c2nc(-c3ccccc3)[nH]c2-c2ccncc2)ccc1Cl [L779450] (first compound 2 µM, partner dose 1 µM) | 62.2% | 58.5% | 58.2% | 59% | 100% | 84.4% | 73.3% | 82.5% | 41.4% | 24.7%
17 | CO[C@@H]1[C@H](N(C)C(=O)c2ccccc2)C[C@H]2O[C@]1(C)n1c3ccccc3c3c4c(c5c6ccccc6n2c5c31)C(=O)NC4 [Midostaurin] + OCCn1cc(-c2cnc3nnn(Cc4ccc5ncccc5c4)c3n2)cn1 [PF04217903] (first compound 0.4 µM, partner dose 5 µM) | 68.8% | 88.6% | 76.2% | 79.4% | 54.4% | 78.9% | 93.7% | 69.9% | 66.7% | 10.3%
18 | C=CCn1c(=O)c2cnc(Nc3ccc(N4CCN(C)CC4)cc3)nc2n1-c1cccc(C(C)(C)O)n1 + O=S(=O)(c1ccccc1)N(CC(F)(F)F)c1ccc(C(O)(C(F)(F)F)C(F)(F)F)cc1 [T0901317] (first compound 0.1 µM, partner dose 7 µM) | 69.7% | 71.5% | 95.9% | 61% | 82.1% | 94.1% | 88.6% | 76% | 44.2% | 105%
19 | NCC(=O)Nc1ccc(-n2nc(C(F)(F)F)cc2-c2ccc3c(ccc4ccccc43)c2)cc1 + CCN(CC)CCCCNc1ncc2cc(-c3cc(OC)cc(OC)c3)c(NC(=O)NC(C)(C)C)nc2n1 [PD173074] (first compound 5 µM, partner dose 0.5 µM) | 94.6% | 58.3% | 101% | 95.6% | 78.3% | 84.1% | 100% | 86.9% | 85.7% | 151%
20 | NCC(=O)Nc1ccc(-n2nc(C(F)(F)F)cc2-c2ccc3c(ccc4ccccc43)c2)cc1 + CN(NC(=O)CC(=O)NN(C)C(=S)c1ccccc1)C(=S)c1ccccc1 [STA4783] (first compound 5 µM, partner dose 0.03 µM) | 63.4% | 67% | 40.9% | 24.9% | 61.2% | 60% | 101% | 21.6% | 49.4% | 63.2%
